Results as given in article PMC4489161.
These are yes or no findings as the source states them, for the method shown. Binding seen in cells or lysates may run through a third protein. Some entries that bind do so weakly or less than the wild type.

Protein sequences, listed by entry. Tags and fused reporters are not part of them.
UniProt Q6R327: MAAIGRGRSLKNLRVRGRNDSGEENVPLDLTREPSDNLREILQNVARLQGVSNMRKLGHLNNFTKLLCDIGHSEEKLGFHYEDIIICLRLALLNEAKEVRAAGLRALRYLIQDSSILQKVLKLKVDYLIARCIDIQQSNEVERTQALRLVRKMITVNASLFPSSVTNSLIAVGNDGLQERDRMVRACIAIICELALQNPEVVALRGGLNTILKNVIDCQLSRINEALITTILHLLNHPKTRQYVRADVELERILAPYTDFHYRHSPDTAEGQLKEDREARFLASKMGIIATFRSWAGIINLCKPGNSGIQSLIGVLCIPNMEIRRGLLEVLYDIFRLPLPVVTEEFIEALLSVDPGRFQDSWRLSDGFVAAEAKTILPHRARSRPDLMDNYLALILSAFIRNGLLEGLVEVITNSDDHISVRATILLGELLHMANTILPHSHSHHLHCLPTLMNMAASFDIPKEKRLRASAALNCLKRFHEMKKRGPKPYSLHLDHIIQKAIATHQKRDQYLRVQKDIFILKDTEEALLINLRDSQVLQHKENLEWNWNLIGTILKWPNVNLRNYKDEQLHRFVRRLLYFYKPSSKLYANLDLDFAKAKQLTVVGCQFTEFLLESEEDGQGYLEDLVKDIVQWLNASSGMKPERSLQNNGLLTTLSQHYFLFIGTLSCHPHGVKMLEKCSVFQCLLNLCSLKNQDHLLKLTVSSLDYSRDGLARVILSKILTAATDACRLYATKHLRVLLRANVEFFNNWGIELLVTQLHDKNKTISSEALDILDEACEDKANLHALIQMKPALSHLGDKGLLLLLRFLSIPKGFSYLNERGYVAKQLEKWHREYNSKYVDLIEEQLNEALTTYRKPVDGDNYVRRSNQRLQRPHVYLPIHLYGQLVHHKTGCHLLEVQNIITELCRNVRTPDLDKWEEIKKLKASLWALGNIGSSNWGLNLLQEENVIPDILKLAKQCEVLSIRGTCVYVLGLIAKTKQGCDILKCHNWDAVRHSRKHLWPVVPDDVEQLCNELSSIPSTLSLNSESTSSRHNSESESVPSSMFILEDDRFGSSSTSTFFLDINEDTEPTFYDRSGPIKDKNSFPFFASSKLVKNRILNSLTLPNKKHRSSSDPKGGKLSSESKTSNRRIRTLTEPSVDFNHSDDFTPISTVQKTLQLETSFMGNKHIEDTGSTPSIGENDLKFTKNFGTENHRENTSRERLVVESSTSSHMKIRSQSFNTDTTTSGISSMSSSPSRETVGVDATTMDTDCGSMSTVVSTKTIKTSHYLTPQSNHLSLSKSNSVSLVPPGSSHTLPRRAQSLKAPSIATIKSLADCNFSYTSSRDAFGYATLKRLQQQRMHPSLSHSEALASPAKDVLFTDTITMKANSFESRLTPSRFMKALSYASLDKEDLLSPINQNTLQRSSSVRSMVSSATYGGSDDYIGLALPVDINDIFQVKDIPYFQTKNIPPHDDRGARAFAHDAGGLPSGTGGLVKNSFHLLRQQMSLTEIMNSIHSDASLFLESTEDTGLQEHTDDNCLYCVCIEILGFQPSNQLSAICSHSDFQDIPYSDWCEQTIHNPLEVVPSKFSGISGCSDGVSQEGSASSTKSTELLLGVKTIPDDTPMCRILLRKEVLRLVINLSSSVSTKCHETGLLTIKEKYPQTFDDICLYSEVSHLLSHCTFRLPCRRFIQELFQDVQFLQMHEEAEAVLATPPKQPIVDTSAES
UniProt P21333: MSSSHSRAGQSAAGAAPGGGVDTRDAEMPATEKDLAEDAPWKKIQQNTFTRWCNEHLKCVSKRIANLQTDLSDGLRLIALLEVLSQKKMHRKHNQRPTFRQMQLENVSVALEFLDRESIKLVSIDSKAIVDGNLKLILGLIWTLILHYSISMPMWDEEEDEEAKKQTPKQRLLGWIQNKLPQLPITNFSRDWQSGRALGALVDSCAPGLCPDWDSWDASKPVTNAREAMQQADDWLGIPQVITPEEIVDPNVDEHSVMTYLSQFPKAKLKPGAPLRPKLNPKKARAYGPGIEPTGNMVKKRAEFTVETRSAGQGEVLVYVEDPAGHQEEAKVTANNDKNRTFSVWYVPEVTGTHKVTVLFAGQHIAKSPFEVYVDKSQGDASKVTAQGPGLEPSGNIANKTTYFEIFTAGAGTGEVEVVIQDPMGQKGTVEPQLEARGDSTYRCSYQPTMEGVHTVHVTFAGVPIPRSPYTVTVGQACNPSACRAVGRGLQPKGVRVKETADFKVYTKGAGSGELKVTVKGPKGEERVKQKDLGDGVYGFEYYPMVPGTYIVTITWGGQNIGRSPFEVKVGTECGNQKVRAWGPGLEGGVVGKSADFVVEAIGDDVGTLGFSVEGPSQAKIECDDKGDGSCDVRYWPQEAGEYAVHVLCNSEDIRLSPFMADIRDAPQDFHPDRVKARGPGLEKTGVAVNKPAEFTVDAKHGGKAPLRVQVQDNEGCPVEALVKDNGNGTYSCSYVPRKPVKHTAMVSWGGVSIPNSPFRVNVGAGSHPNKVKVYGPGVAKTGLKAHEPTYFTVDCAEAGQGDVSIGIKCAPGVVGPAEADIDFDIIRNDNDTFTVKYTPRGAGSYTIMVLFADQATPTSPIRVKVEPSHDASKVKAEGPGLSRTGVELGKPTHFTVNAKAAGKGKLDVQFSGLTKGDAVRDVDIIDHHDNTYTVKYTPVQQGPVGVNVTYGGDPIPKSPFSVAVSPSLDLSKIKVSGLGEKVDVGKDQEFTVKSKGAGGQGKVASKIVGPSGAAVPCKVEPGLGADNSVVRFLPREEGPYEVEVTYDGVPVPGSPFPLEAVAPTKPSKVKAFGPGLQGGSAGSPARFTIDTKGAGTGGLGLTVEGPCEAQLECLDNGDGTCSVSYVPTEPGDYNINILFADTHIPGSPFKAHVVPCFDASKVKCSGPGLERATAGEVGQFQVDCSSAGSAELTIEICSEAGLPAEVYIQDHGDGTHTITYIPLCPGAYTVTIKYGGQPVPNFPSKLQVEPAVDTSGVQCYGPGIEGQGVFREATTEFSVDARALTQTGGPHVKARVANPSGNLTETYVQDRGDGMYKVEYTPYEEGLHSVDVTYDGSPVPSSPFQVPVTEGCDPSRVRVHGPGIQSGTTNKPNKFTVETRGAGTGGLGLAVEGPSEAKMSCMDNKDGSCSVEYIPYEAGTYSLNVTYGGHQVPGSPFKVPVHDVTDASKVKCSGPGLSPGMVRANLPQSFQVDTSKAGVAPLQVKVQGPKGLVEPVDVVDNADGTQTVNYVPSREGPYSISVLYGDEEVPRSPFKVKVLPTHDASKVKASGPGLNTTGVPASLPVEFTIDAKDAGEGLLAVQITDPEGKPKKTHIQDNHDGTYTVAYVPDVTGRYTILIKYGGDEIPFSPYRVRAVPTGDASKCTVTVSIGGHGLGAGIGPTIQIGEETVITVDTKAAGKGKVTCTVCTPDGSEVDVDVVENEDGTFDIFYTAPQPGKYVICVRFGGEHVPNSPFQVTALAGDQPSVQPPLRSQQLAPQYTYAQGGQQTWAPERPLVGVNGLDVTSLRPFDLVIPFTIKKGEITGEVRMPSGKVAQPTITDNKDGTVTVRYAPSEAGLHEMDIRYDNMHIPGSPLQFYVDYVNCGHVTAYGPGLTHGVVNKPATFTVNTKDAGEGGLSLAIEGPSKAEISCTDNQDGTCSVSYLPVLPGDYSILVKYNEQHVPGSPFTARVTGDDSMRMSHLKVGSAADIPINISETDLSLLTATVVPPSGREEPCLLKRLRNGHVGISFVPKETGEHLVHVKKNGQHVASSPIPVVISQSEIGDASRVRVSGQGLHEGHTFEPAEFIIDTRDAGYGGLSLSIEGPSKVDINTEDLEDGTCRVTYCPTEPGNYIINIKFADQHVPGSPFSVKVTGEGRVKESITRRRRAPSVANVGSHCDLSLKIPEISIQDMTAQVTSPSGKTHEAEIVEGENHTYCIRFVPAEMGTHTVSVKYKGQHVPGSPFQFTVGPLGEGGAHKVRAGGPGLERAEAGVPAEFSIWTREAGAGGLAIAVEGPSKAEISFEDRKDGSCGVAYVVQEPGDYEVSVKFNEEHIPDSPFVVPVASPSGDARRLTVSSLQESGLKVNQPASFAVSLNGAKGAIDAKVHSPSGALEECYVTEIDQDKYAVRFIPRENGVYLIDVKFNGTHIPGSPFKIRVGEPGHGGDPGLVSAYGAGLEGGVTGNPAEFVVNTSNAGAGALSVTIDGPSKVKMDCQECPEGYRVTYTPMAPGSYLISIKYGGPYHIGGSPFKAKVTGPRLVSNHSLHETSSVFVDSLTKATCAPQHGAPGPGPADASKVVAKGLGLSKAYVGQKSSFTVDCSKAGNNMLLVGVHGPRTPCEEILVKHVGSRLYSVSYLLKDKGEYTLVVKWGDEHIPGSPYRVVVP
UniProt Q8N122: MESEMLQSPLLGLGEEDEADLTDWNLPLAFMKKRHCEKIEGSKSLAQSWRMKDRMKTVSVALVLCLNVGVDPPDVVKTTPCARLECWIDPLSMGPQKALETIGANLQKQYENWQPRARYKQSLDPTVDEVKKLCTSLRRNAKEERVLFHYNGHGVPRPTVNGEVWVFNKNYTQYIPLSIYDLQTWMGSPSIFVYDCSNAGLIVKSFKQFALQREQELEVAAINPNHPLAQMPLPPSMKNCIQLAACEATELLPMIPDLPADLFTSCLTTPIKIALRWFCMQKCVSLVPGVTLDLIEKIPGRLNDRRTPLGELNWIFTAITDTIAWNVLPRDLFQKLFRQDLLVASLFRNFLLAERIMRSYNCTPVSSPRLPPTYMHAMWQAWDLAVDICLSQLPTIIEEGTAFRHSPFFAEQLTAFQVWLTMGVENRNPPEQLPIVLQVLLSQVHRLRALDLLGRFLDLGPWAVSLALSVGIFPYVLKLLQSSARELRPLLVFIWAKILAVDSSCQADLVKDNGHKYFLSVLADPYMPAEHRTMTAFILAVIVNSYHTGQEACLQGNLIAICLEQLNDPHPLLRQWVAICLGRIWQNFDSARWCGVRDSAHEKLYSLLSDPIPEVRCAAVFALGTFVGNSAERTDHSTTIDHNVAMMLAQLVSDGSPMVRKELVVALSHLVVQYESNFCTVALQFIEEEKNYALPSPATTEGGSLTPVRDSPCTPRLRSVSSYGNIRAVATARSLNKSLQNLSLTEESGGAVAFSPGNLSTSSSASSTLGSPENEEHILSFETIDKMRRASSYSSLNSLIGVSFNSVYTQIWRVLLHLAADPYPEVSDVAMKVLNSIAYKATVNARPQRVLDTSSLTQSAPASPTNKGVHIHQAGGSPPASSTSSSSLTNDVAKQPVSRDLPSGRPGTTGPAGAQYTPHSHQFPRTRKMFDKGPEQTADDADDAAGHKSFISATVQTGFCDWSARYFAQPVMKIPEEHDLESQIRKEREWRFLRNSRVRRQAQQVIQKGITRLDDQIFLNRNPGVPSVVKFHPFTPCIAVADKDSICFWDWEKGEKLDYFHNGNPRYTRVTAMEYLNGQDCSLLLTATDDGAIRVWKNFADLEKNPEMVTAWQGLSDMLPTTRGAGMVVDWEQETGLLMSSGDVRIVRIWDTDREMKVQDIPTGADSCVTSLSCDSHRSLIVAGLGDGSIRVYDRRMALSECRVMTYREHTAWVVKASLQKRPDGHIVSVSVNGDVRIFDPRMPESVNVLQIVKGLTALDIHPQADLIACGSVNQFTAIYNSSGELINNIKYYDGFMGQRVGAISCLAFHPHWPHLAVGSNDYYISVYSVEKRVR

How the values were obtained:
[1] = target: FLAG-RICTOR (stably expressed in HEK293T cells) (UniProt Q6R327); assay: co-IP; FLAG-RICTOR captured from HEK293T lysate (2 % CHAPS) on anti-FLAG M2 magnetic beads, eluted with 3X FLAG peptide; partners detected by immunoblot
[2] = target: phospho-Filamin A (Ser2152) (endogenous, U87vIII cells) (human (endogenous in U87vIII)) (UniProt P21333); assay: co-IP; U87vIII lysate (2 % CHAPS) incubated overnight at 4 °C with antibodies against mTOR, phospho-FLNA (Ser2152), RICTOR or RAPTOR, protein G Dynabeads; endogenous proteins detected by Western blot
[3] = target: FLAG-RICTOR (stably expressed in U87vIII cells) (UniProt Q6R327); assay: co-IP; FLAG-RICTOR captured from U87vIII lysate (2 % CHAPS) on anti-FLAG M2 magnetic beads, eluted with 3X FLAG peptide; partners detected by immunoblot
[4] = target: FLAG-RICTOR (stably expressed in U87vIII cells) (UniProt Q6R327); assay: co-IP; FLAG-RICTOR captured on anti-FLAG beads from U87vIII cells lysed with 1 % Triton X-100 in place of 2 % CHAPS (dissociates mTOR from RICTOR); immunoblot
[5] = target: RICTOR (endogenous, U87vIII cells) (human (endogenous in U87vIII)) (UniProt Q6R327); assay: co-IP; U87vIII lysate (2 % CHAPS) incubated overnight at 4 °C with antibodies against mTOR, phospho-FLNA (Ser2152), RICTOR or RAPTOR, protein G Dynabeads; endogenous proteins detected by Western blot

Substance | binding [1] | binding [3] | further results
phospho-Filamin A (Ser2152) (endogenous, HEK293T cells) (from UniProt P21333 1-2647) | binds | – | –
RAPTOR (endogenous, U87vIII cells) (from UniProt Q8N122 1-1335) | – | – | binding [2]: no binding
Filamin A (endogenous, U87vIII cells) (from UniProt P21333 1-2647) | – | binds | binding [4]: binds
phospho-Filamin A (Ser2152) (endogenous, U87vIII cells) (from UniProt P21333 1-2647) | – | binds | binding [5]: binds
PKCα (endogenous, U87vIII cells) (from UniProt P17252 1-672) | – | no binding | –
Filamin A (endogenous, HEK293T cells) (from UniProt P21333 1-2647) | binds | – | –
